According to PubChem BioAssay AID686978 (National Center for Advancing Translational Sciences (NCATS), 2013):
In all, about 420,000 compounds went through this assay and about 64,000 (15%) were called active. This list was built around the results that the source calls inconclusive (neither active nor inactive); the mix of calls is not that of the screen. Calls come from the whole dose curve; as a rule, active = well fitted inhibition curve with a large enough effect; inconclusive = small, poorly fitted or top-dose-only effect; inactive = flat fitted curve, though single readings scatter. No potency is given beside an inconclusive call; the fits are too rough.
% is set by controls: 0 for no effect and ±100 for the full control effect; potency is the fitted concentration of half-maximal effect; tags give direction and shape of the fitted curve.

Experiment: qHTS for Inhibitors of human tyrosyl-DNA phosphodiesterase 1 (TDP1): qHTS in cells in absence of CPT; note: nearly all actives have a fitted effect of over 55% in size
Settings: DT40 Tdp1-/- hTDP1 cells, no CPT, ATP luminescence, 48 h; activity change, negative = growth inhibition: at 46.2 µM (top of the series) unless noted
Method in brief: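 Chicken DT40 Tdp1-/- cells complemented with human TDP1, screened without camptothecin (DMSO vehicle only), 400 cells/well. Compounds pin-transferred, cells incubated at 37 °C for at least 48 hr. Growth read as ATP-dependent luminescence (CellTiter-Glo, 30 min at RT).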
In the case of `COCc1cc(C)nc2sc(C(=O)Nc3nccs3)c(N)c12`, the Potency is reported as inconclusive [inhibitor, single point].
In the case of `NS(=O)(=O)c1ccc(NCc2ccccc2OCc2ccc(F)cc2)cc1`, the Potency is reported as active: 18.4 µM.
For `Cc1cc(NC(=O)c2ccccc2F)nc2c1c(=O)oc1ccccc12`, the Potency was inconclusive [inhibitor, single point].
With `CCOC(=O)C1C(=O)OC(C)(C)C1C(C)C(=O)c1ccc(C)cc1C` (stereo not given) the Potency was inconclusive [inhibitor, partial curve].
With `Cc1nn(CC(=O)NC(C)c2ccccc2)c(=O)c2cc3occc3n12` (stereo not given) the “activity change, negative = growth inhibition” value was inactive: -16.8%.
For `Cc1nc(SCC(=O)NC2CCCC2)c2oc3ccccc3c2n1`, the Potency was inconclusive [inhibitor, partial curve].
In the case of `CC(C)(C)c1ccc(S(=O)(=O)NCC(=O)Nc2ccc(-c3nc4ccccc4s3)cc2)cc1`, the “activity change, negative = growth inhibition” value is reported as inactive: -25.7%.
With `Fc1ccc2nc(-c3ccccc3)nc(SCc3nnc(-c4ccccc4)o3)c2c1` the Potency was active: 23.1 µM.
For `CN1C(=O)C(c2nnc(Nc3cccc4ccccc34)s2)C2CC1(C)Oc1ccccc12` (stereo not given), the Potency was inconclusive [inhibitor, single point].
In the case of `O=C(CSC1CC(=O)N(c2ccc(C(=O)O)cc2)C1=O)Nc1ccc(Cl)cc1` (stereo not given), the Potency is reported as inconclusive [inhibitor, single point].
In the case of `COc1ccc(S(=O)(=O)N(C)C[C@@H]2Oc3ccc(NS(=O)(=O)c4cn(C)cn4)cc3C(=O)N([C@@H](C)CO)C[C@@H]2C)cc1`, the “activity change, negative = growth inhibition” value is reported as inactive: 2.75%.
For `Cc1cc2ccccn2c1C(=O)c1ccccc1F`, the Potency was inconclusive [inhibitor, partial curve].
With `CCn1c(CC(=O)Nc2ccc(F)cc2)nnc1SCC(=O)Nc1nncs1` the “activity change, negative = growth inhibition” value was inactive: 11.2%.
In the case of `COc1cc(OC)c(NC(C)C(=O)NCc2ccccc2)cc1Cl` (stereo not given), the “activity change, negative = growth inhibition” value is reported as inactive: 9.45%.
In the case of `COc1ccc2c(c1)CC(C(=O)Nc1c(C)cc(C)cc1C)CO2` (stereo not given), the Potency is reported as inconclusive [inhibitor, single point].
With `COc1cccc(-c2ccc3ncnc(NCCN4CCOCC4)c3c2)c1` the Potency was inconclusive [inhibitor, single point].
With `NS(=O)(=O)c1ccc(CCNC(=O)Cn2c(=O)c3cccn3c3ccc(F)cc32)cc1` the “activity change, negative = growth inhibition” value was inactive: -14.7%.
In the case of `Cn1c(=NC(=O)c2ccccc2[N+](=O)[O-])sc2cc(S(C)(=O)=O)ccc21`, the “activity change, negative = growth inhibition” value is reported as inactive: -18.4%.
With `CC(C)(Oc1ccc(Cl)cc1)C(=O)NCC1CCCO1` (stereo not given) the “activity change, negative = growth inhibition” value was inactive: -1.17%.
For `O=C(Nc1cccc(F)c1)C1CCN(c2nc3ccccc3nc2C(F)(F)F)CC1`, the Potency was active: 16.4 µM.
In the case of `CC(C)(C)SC(=O)CC1NS(=O)(=O)OC2CCCCC12` (stereo not given), the Potency is reported as inconclusive [inhibitor, single point].
In the case of `COC(=O)c1ccc(C2/C(=C(\O)c3ccc4c(c3)OCCO4)C(=O)C(=O)N2CCCN(C)C)cc1` (stereo not given), the “activity change, negative = growth inhibition” value is reported as inactive: -8.75%.
For `CCc1ccccc1-n1nnc(-c2nc(-c3ccccc3F)no2)c1C`, the Potency was inconclusive [inhibitor, single point].
For `Nc1ccc(Oc2ccc(N)c([N+](=O)[O-])c2)cc1[N+](=O)[O-]`, the Potency was inconclusive [inhibitor, single point].
In the case of `Nc1scc2c(C(=O)N/N=C/c3ccc(Cl)cc3)nn(-c3ccccc3)c(=O)c12`, the Potency is reported as active: 7.31 µM.
For `COc1cccc(C(=O)NCC(c2ccc3c(c2)OCO3)N2CCN(C)CC2)c1` (stereo not given), the “activity change, negative = growth inhibition” value was inactive: -21.7%.
In the case of `CC(C)(C)c1ccc(Cn2nnc3c(=O)[nH]c(C4CCN(C(=O)c5ccco5)CC4)nc32)cc1`, the Potency is reported as inconclusive [inhibitor, single point].
For `COc1cc(S(=O)(=O)n2c(C)nc3ccccc32)ccc1F`, the Potency was inconclusive [inhibitor, single point].
For `CCC(c1nnc(SCc2nc3ccccc3s2)n1Cc1ccccc1)N(C)C` (stereo not given), the Potency was inconclusive [inhibitor, partial curve, poor fit].
For `Cc1ccc(-c2csc3ncn(CC#N)c(=O)c23)cc1C`, the Potency was inconclusive [inhibitor, partial curve].
With `Cc1cc(C#N)c(C)n1-c1cc(S(=O)(=O)N2CCOCC2)ccc1N1CCCC1` the Potency was active: 14.6 µM.
With `COC(=O)[C@@]1(C)[C@H]2C(=O)N(Cc3ccccc3)C(=O)[C@H]2[C@H]2CN=C(SCc3ccccc3)N21` the Potency was inconclusive [inhibitor, single point].
For `COc1cccc(NC(=O)CSC2=Nc3ccccc3C3=NC(CCC(=O)NC4CCCCC4)C(=O)N23)c1` (stereo not given), the Potency was inconclusive [inhibitor, single point].
In the case of `O=C(Nc1ccccc1C(=O)N1CCN(CCO)CC1)c1cccc([N+](=O)[O-])c1`, the “activity change, negative = growth inhibition” value is reported as inactive: -0.343%.
In the case of `CCOC(=O)C(C)NC(=O)CCc1nnc2ccc(N3CCC(C)CC3)nn12` (stereo not given), the Potency is reported as inconclusive [inhibitor, single point].
In the case of `O=C(NNC1=NS(=O)(=O)c2ccccc21)c1ccccc1Cl`, the Potency is reported as inconclusive [inhibitor, single point].
With `Cc1c(C)c2c(OCC(=O)NCC(C)C)cc3c(c2oc1=O)CCC(C)(C)O3` the Potency was inconclusive [inhibitor, single point].
With `COc1cc(/C=C2\SC(=Nc3ccccc3OC)NC2=O)ccc1O` the Potency was inconclusive [inhibitor, single point].
In the case of `COCC(=O)N1CCC2(CCN(Cc3ccncc3)CC2)CC1`, the “activity change, negative = growth inhibition” value is reported as inactive: 3.1%.
For `COc1ccc(OC)c(NC(=O)CCCOc2cc(=O)n(C)c3ccccc23)c1`, the Potency was inconclusive [inhibitor, single point].
For `CC1CN(C(=O)CCC(=O)NC2CCCCC2)c2ccccc2S1` (stereo not given), the Potency was inconclusive [inhibitor, single point].
With `COc1cc([N+](=O)[O-])ccc1NC(=O)CCCOc1cccc(C)c1C` the “activity change, negative = growth inhibition” value was inactive: -9.9%.
In the case of `CCOC(=O)Nc1nc(-c2ccc(F)cc2F)cs1`, the Potency is reported as inconclusive [inhibitor, partial curve].
In the case of `COc1cc(NC(=O)c2cc(-c3ccccc3Cl)on2)cc(OC)c1OC`, the Potency is reported as active: 2.91 µM.
In the case of `Cc1ccc(-n2ncc3c(NCCc4ccccc4)ncnc32)cc1Cl`, the Potency is reported as inconclusive [inhibitor, single point].
